In PubChem BioAssay AID588591 (National Center for Advancing Translational Sciences (NCATS), 2011):
Values joined by “and” are separate entries in the source; they are usually repeats but may differ in a detail not shown here. Equal values may be shown once. The whole screen tested about 390,000 compounds, of which about 4,700 (1.2%) were called active. Not shown: some 4% with an inconclusive outcome. Calls follow the shape of the dose curve; as a rule, active = well fitted inhibition curve with a large enough effect; inconclusive = small, poorly fitted or top-dose-only effect, or another doubt; inactive = no such curve, though single readings can be large or run the other way. This is a selection; strong and weak results do not stand in their true shares. Some compounds were tested as several samples or in several runs, with calls that do not always agree.

Target: DNA polymerase eta (Homo sapiens) (UniProt Q9Y253)
Assay: qHTS for Inhibitors of Polymerase Eta
Settings: recombinant Pol eta, fluorescent DNA replication assay; series mostly up to 114 µM; activity change, negative = inhibition: at the top concentration
From the text: The Y-family of DNA polymerases, such as Pol eta, are specifically involved in DNA repair. Pol eta copies undamaged DNA with a lower fidelity than other DNA-directed polymerases. However, it accurately replicates UV-damaged DNA; when thymine dimers are present, this polymerase inserts the complementary nucleotides in the newly synthesized DNA, thereby bypassing the lesion and suppressing the mutagenic effect of UV-induced DNA damage. […] Thus, while pol eta's (and most likely iota's) normal function is to protect humans against the deleterious consequences of DNA damage, under certain conditions they can have deleterious effects on human health. As a consequence, we propose to utilize a high throughput replication assay to identify small molecule inhibitors of pol eta. In a collaboration between the National Institute of Child Health & Human Development (NICHD) and NIH Chemical Genomics Center, a high-throughput, fluorescent screen was developed to screen the NIH Molecular Libraries Small Molecule Repository (MLSMR). This screen is used to identify inhibitors of pol eta. NIH Chemical Genomics Center [NCGC] NIH Molecular Libraries Probe Centers Network [MLPCN] MLPCN Grant: MH090825 Assay Submitter (PI): Roger Woodgate, NICHD)
Three microliters of reagents (buffer in column 3 and 4 as negative control and 10 nM Pol eta in columns 1, 2, and 5-48) were dispensed into a 1,536-well black solid-bottomed plate. Compounds (23 nL) were transferred via Kalypsys pin tool equipped with 1536-pin array. The plates were then incubated for 15 min at room temperature, and 1 µL substrate (50 nM final concentration) was added to start the reaction and kinetically read twice at 0 min and 10 min on the Viewlux reader
% is scaled to controls: 0 for no effect and ±100 for the full control effect; potency is read from the fitted curve at half-maximal effect.

Sequence of UniProt Q9Y253 (Q9Y253 whole entry, looked up): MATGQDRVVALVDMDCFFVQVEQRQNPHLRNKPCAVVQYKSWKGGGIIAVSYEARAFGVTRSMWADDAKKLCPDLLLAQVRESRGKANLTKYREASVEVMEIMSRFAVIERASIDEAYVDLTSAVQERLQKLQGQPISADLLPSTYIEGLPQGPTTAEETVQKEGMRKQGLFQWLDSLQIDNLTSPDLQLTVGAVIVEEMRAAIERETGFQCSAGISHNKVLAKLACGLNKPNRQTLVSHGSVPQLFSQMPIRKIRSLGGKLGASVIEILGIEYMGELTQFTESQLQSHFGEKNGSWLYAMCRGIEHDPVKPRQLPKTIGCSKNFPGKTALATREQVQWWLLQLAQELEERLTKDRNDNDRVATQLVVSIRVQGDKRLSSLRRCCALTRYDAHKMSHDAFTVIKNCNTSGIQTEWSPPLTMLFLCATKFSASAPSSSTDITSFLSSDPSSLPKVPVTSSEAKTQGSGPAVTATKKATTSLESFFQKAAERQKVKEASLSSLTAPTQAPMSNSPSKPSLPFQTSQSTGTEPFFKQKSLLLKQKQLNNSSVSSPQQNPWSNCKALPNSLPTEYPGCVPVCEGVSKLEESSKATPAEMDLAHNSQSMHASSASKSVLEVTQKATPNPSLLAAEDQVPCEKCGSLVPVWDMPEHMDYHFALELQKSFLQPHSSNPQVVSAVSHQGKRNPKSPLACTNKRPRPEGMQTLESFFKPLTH

Structure (SMILES)	activity change, negative = inhibition	Potency
C=CC[C@@H](CC(=O)N(CCO)Cc1ccccc1)C(=O)N[C@H](COC(=O)[C@@H](CC=C)Cc1ccc(F)cc1)Cc1ccccc1	inactive: -24.1%	–
COc1ccc(NC(=O)C(c2ccc(C)cc2)N(C)C(=O)Cc2cccs2)cc1 (centres undefined)	inactive: -16.9%	–
Cc1cc(=S)[nH]c(=S)[nH]1	inactive: 35.3%	–
C[n+]1cccc2cccc([O-])c21	–	active: 22.4 µM
Cc1cc(C(=O)O)ccc1-c1ccc(/C=C2\NC(=O)N(Cc3ccc(F)cc3)C2=O)o1	–	active: 7.08 µM
COc1cc(C2NC(=O)NC(C)=C2[N+](=O)[O-])cc(OC)c1OC (centres undefined)	inactive: 41%	–
CSCC[C@H](NC(=O)CCCn1nnc2ccccc2c1=O)C(=O)O	inactive: 34.8%	–
COc1ccc([C@H]2C[C@@H](O)[C@H](n3cc(COC(=O)c4ccccc4)nn3)CN2CC2CCCCC2)cc1	inactive: -11.8%	–
O=C(COC(=O)/C=C/c1ccc2ccccc2n1)NNC(=O)c1ccccc1	–	active: 39.8 µM
CC(=O)N(OCc1ccc(OC(C)C)c(Cl)c1)C(C)=O	inactive: 30.5%	–
C=CCC[C@H](Cc1ccc(F)cc1)C(=O)OC[C@H](Cc1c[nH]c2ccccc12)NC(=O)[C@H](CC=C)CC(=O)N(CCO)Cc1ccccc1	inactive: -17.1%	–
CCCNC(=O)Nc1cc(S(=O)(=O)CC)ccc1O	inactive: 33.4%	–
CCN(c1ccc(OC)cc1)S(=O)(=O)c1nnc(NC(=O)COc2ccc(F)cc2)s1	inactive: -9.27%	–
O=C(Nc1ccccc1)Nc1scc2c1c(=O)oc1ccccc12	inactive: 19.3%	–
N#C/C(=C\c1ccc(O)c(O)c1)C(=O)c1ccc(O)c(O)c1	inactive: -99.6%	–
CC(=O)c1ccc(OCCOc2ccc(C#N)cc2)cc1	inactive: 31.7%	–
CC(=O)NS(=O)(=O)c1ccc(NC(=O)c2cc3c(=O)n4ccccc4nc3s2)cc1	–	active: 39.8 µM
O=C(Cn1ccn(-c2ccc(F)c(F)c2)c(=O)c1=O)NCCc1ccccc1	inactive: -1.72%	–
CCOC(=O)c1cc(=O)cc(C(=O)OCC)o1	inactive: -9.45%	–
Nc1ccc([N+](=O)[O-])cc1C(=O)NNC(=O)c1ccco1	inactive: 21.2%	–

Structure (SMILES)	activity change, negative = inhibition	Potency
O=C(CCCN1C(=O)/C(=C/c2ccccc2Cl)SC1=S)NNC(=O)c1cccnc1	inactive: 36.5%	–
CCC(=O)Oc1ccc2c(c1)OC1(OC(C)=O)OC(C)CC1=C2C (centres undefined)	inactive: 30.8%	–
CO[C@@]1(NC(=O)CSCC#N)C(=O)N2C(C(=O)O)=C(CSc3nnnn3C)CS[C@@H]21	inactive: -1.97% [at 57.1 µM]	–
COc1cc2ccc(=O)oc2c(O[C@@H]2O[C@H](CO)[C@@H](O)[C@H](O)[C@H]2O)c1O	inactive: -22.6%	–
CCO[C@@H]1OC(C(=O)N2CCCCCCC2)=C[C@H](C2CCCCC2)[C@H]1CCCO	inactive: -17.5%	–
COc1cc([N+](=O)[O-])ccc1NC(=O)Nc1cnccn1	–	active: 79.4 µM
Oc1ccc(C[C@@H]2CNCCN2CCc2cc(C(F)(F)F)cc(C(F)(F)F)c2)cc1	inactive: -16.2%	–
Cc1ncc(CO)c2c1Oc1nc(-c3ccccc3)nc(SCC(=O)N3CCCCC3)c1C2	inactive: -7.21%	–
CCc1ccc(-c2nc(CS(=O)CC(=O)NCc3ccco3)c(C)o2)cc1 (centres undefined)	–	active: 89.1 µM
Oc1ccc(NCc2ccccc2OCc2ccccc2)cc1	inactive: -23.2%	–
CCCCCC(=O)N1CCN(CCN=CC2=C(O)CC(c3cccs3)CC2=O)CC1 (centres undefined)	inactive: 4.9%	–
CC(C)c1ccc2c(c1)c(SC(C)(C)C)c(CC(C)(C)C(=O)O)n2Cc1ccc(Cl)cc1	–	active: 35.5 µM and active: 25.1 µM
Cc1ccc(N2CCN(C(=O)c3nn(C)c4c3CS(=O)(=O)c3ccccc3-4)CC2C)cc1 (centres undefined)	inactive: -20.5%	–
CCN1CCN(c2cc(C)c3cc(NC(=O)c4cc(OC)cc(OC)c4)ccc3n2)CC1	inactive: -19.1%	–
Cc1cccc(N2CCN(S(=O)(=O)c3c(C)nc4scc(C)n4c3=O)CC2C)c1 (centres undefined)	inactive: -7.56%	–
C[C@H](NC(=O)c1ncn2c1c(=O)[nH]c1ccc(Br)cc12)c1ccccc1	inactive: -17.6%	–
C=CCn1c(=O)c2ccccc2n2c(SCC(=O)/C(C#N)=C(\C)N)nnc12	inactive: -10.6%	–
CC(C)(C)c1ccc(C(O)CCCN2CCC(C(O)(c3ccccc3)c3ccccc3)CC2)cc1 (centres undefined)	inactive: -4.65%	–
CC1CCC(C(C)C)C(OC(=O)C[n+]2cc(-c3ccc(Cl)cc3)n3c2CCCCC3)C1 (centres undefined)	inactive: -20.1%	–
Cc1cc(C)n2c(SC/C(O)=C(\C#N)c3nc4ccccc4[nH]3)nnc2n1	–	active: 3.16 µM

Structure (SMILES)	activity change, negative = inhibition	Potency
O=Cc1c(-[n+]2ccccc2)nc([O-])n1-c1ccccc1	inactive: -8.14%	–
CC1=C(C/C=C(\C)CCCC(C)CCCC(C)CCCC(C)C)C(=O)c2ccccc2C1=O (centres undefined)	inactive: -12.8%	–
CCOc1ccc(CNC(=O)CCCOc2cc(=O)n(C)c3ccccc23)cc1	inactive: -1.22%	–
CN(C)CCCN1c2ccccc2Sc2ccc(Cl)cc21	–	inactive
O=C(N/N=C\c1ccc(Br)o1)C1COc2ccccc2O1 (centres undefined)	–	active: 44.7 µM
NS(=O)(=O)c1ccc(NC(=O)/C=C/c2ccco2)cc1	–	active: 20 µM
O=C(COC(=O)c1ccccc1)Nc1ncc([N+](=O)[O-])s1	–	active: 0.794 µM
Cc1c(Cl)cnc(NC(=O)COC(=O)C(NC(=O)c2ccco2)C(C)C)c1Cl (centres undefined)	–	active: 89.1 µM
COc1cc(/C=C(\C#N)c2nc3ccccc3[nH]2)ccc1OCc1ccc(F)cc1	–	active: 79.4 µM
CCN(CC)c1ccc(C=N/C(C#N)=C(\N)C#N)cc1	inactive: 21%	–
NNC(=O)c1cc(NS(=O)(=O)c2cccs2)cc(NS(=O)(=O)c2cccs2)c1	–	active: 20 µM
CN(C)c1cccc2c1c(NC(=O)c1ccc(F)cc1)nn2C	inactive: 34.7%	–
CC1(C)Cc2nc3sc4c(SCC(=O)NCc5ccco5)ncnc4c3cc2CO1	–	active: 22.4 µM
COc1ccc([C@@H]2CC(=O)c3c(O)cc(O[C@@H]4OC(CO[C@@H]5OC(C)[C@H](O)[C@H](O)C5O)[C@@H](O)[C@@H](O)C4O)cc3O2)cc1O (some centres undefined)	inactive: -12.1%	–
CC(=O)Oc1ccc2c(c1)Oc1cc(OC(C)=O)ccc1C21OC(=O)c2ccccc21	inactive: 256%	–
Cc1cc(C)[n+](-c2ccc(Oc3ccccc3)c(S(=O)(=O)[O-])c2)[nH]1	inactive: -19.7%	–
O=C(CCCN1C(=O)S/C(=C\C=C\c2ccccc2)C1=O)Nc1ccc(C(=O)O)cc1	inactive: -21.6%	–
CCOC(=O)c1ccc(NC(=O)c2ncn3c2C(=O)NC[C@H]3C)cc1	inactive: -1.85%	–
COc1cc(/C=C/C(=O)OCC(=O)Nc2ccc(S(N)(=O)=O)cc2)ccc1O	–	active: 50.1 µM
